{"source": "patent US12692294B2", "about": "“Engineered NRG-1 variants with improved selectivity toward ErbB4 but not against ErbB3” (Amgen Inc., priority 2021, dated 2026)", "molecules": {"B1": {"name": ":huFcSEFL2(desK):G4SG4:huNRG1(S177-F229)(NRGE1C): N-terminal Fc fusion of NRG1 variant SEQ ID NO:117 (protein)", "chain": "[letters of human IgG1 Fc with R292C N297G V302C (EU numbers) not shown]GGGGSGGGGSHLVKCGEKHKSFCVNGGECFMIEGPSNPSRYLCKCPNEFTGDRCQEDFMASF[letters of human IgG1 Fc with R292C N297G V302C (EU numbers) not shown]GGGGSGGGGSHLVKCGEKHKSFCVNGGECFMIEGPSNPSRYLCKCPNEFTGDRCQEDFMASF", "modifications": "huFcSEFL2(desK)G4SG4huNRG1(S177-F229) (NRGE1C)"}, "B2": {"name": ":huFcSEFL2(desK):G4SG4:huNRG1(S177-F229)(NRGE1D): N-terminal Fc fusion of NRG1 variant SEQ ID NO:126 (protein)", "chain": "[letters of human IgG1 Fc with R292C N297G V302C (EU numbers) not shown]GGGGSGGGGSHLVKCGESHKSFCVNGGECYMVEGSSIPSRYLCKCPNEFTGDRCQEDFMASF[letters of human IgG1 Fc with R292C N297G V302C (EU numbers) not shown]GGGGSGGGGSHLVKCGESHKSFCVNGGECYMVEGSSIPSRYLCKCPNEFTGDRCQEDFMASF", "modifications": "huFcSEFL2(desK)G4SG4huNRG1(S177-F229) (NRGE1D)"}, "B3": {"name": "huNRG1(S177-Q237)(NRGE1O)::GG::huFcSEFL2 (Pb): Fc fusion of NRG1 variant SEQ ID NO:142 (protein)", "chain": "SHLVKCGEKHKSFCVNGGECYMVEGSSIPSRYLCKCPNEFTGDRCQDFFMASFYKAEELYQGG[letters of human IgG1 Fc with R292C N297G V302C (EU numbers) not shown]", "modifications": "huNRG1(S177-Q237)(NRGE1O)::GG::huFcSEFL2 (Pb)"}, "B4": {"name": "huNRG1(S177-Q237)(NRGE1P)::GG::huFcSEFL2 (Pb): Fc fusion of NRG1 variant SEQ ID NO:143 (protein)", "chain": "B3 chain with G7A, K9S, Y21F, V23I, S26P, I28N", "modifications": "huNRG1(S177-Q237)(1D3)::GG::huFcSEFL2 (Pb)"}, "B5": {"name": "huNRG1(S177-F229)(NRGE1C) (D48T_F49Q_M50I) huIgG1z SELF2 Fc: Fc fusion of NRG1 variant SEQ ID NO:118 (protein)", "chain": "SHLVKCGEKHKSFCVNGGECFMIEGPSNPSRYLCKCPNEFTGDRCQAPHIASFGGGGEGGGGAGGGG[letters of human IgG1 Fc with R292C N297G V302C (EU numbers) not shown]", "modifications": "huNRG1(S177-F229)(NRGE1C) (E47A_D48P_F49H_M50I) huIgG1z SELF2 Fc"}, "B6": {"name": "huNRG1(S177-F229)(NRGE1D) huIgG1z SELF2 Fc: Fc fusion of NRG1 variant SEQ ID NO:126 (protein)", "chain": "B5 chain with K9S, F21Y, I23V, P26S, N28I, A47E, P48D, H49F, I50M", "modifications": "huNRG1(S177-F229) huIgG1z SELF2 Fc"}, "B7": {"name": "huNRG1(S177-F229)(NRGE1C) (E47Q_D48S_M50P) huIgG1z SELF2 Fc: Fc fusion of NRG1 variant SEQ ID NO:121 (protein)", "chain": "B5 chain with A47Q, P48S, H49F, I50P", "modifications": "huNRG1(S177-F229)(NRGE1C) (E47Q_D48S_M50P) huIgG1z SELF2 Fc"}, "B8": {"name": "huNRG1(S177-F229)(NRGE1C) huIgG1z SELF2 Fc: Fc fusion of NRG1 variant SEQ ID NO:117 (protein)", "chain": "B5 chain with A47E, P48D, H49F, I50M", "modifications": "huNRG1(S177-F229)(NRGE1C) huIgG1z SELF2 Fc"}, "B9": {"name": "huNRG1(S177-F229)(NRGE1C) (E47A_D48P_F49H_M50I) huIgG1z SELF2 Fc: Fc fusion of NRG1 variant SEQ ID NO:119 (protein)", "chain": "B5 chain", "modifications": "huNRG1(S177-F229)(NRGE1C) (E47A_D48P_F49H_M50I) huIgG1z SELF2 Fc"}, "B10": {"name": "huNRG1(S177-F229)(NRGE1C) (E47S_D48A_F49L_M50T) huIgG1z SELF2 Fc: Fc fusion of NRG1 variant SEQ ID NO:122 (protein)", "chain": "B5 chain with A47S, P48A, H49L, I50T", "modifications": "huNRG1(S177-F229)(NRGE1C) (E47S_D48A_F49L_M50T) huIgG1z SELF2 Fc"}, "B11": {"name": "huNRG1(S177-F229)(NRGE1C) (E47K_48T_F49S_M50L) huIgGlz SELF2 Fc: Fc fusion of NRG1 variant SEQ ID NO:120 (protein)", "chain": "B5 chain with A47K, P48T, H49S, I50L", "modifications": "huNRG1(S177-F229)(NRGE1C) (E47K_D48T_F49S_M50L) huIgG1z SELF2 Fc"}, "B12": {"name": "huNRG1(S177-F229) huIgG1z SELF2 Fc: Fc fusion of NRG1 fragment S177-F229 without variant mutations (protein)", "chain": "SHLVKCAEKEKTFCVNGGECFMVKDLSNPSRYLCKCPNEFTGDRCQNYVMASFGGGGEGGGGAGGGG[letters of human IgG1 Fc with R292C N297G V302C (EU numbers) not shown]", "modifications": "huNRG1(S177-F229) huIgG1z SELF2 Fc", "notes": "Fc fusion of NRG1 fragment S177-F229 without variant mutations"}}, "note": "Numbering of substitutions follows the chain as printed.", "data": [{"target": "T1, ErbB3 (Rattus norvegicus, UniProt Q62799)", "T1 construct": "forming the ErbB2/ErbB4 complex in cardiomyocytes and the ErbB2/ErbB3 complex in Schwann cells; endogenous in cells; host or cells: rat Schwann cells", "T1 sequence (Q62799 20-1339)": "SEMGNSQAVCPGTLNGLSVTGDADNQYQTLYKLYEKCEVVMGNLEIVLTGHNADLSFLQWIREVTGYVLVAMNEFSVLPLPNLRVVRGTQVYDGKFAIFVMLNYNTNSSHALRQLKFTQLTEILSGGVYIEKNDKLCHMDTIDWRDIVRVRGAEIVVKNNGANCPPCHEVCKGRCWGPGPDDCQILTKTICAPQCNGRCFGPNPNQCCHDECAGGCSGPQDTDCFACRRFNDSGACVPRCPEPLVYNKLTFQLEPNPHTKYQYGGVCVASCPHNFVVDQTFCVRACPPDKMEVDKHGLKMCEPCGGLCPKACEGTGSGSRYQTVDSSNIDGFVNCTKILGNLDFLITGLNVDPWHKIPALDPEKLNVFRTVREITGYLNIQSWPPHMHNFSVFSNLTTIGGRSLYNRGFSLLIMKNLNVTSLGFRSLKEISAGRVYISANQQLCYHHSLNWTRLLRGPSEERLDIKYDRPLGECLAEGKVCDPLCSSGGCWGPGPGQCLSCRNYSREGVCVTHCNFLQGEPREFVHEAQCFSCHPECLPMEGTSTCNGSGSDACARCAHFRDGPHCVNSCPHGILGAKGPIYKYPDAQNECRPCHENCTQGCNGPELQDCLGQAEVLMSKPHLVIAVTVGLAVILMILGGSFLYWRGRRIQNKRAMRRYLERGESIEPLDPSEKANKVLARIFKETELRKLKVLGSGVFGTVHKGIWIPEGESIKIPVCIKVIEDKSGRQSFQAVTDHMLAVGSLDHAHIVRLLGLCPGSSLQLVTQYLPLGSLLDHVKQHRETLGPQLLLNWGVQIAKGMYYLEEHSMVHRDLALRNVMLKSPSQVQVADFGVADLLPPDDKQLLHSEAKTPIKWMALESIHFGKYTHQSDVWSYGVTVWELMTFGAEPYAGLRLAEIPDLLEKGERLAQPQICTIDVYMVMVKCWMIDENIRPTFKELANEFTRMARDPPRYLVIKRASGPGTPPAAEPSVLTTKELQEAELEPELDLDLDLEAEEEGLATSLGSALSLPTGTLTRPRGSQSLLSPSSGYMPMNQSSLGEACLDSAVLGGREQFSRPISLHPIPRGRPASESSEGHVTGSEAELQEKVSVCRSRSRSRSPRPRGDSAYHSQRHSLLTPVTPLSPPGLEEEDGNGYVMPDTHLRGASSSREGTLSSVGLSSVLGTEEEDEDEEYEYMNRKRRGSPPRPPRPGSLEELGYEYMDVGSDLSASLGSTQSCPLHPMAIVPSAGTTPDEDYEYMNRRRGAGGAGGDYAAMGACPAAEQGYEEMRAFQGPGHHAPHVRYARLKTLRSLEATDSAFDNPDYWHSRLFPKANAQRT", "T1 sequence (P06494 23-1257 partner)": "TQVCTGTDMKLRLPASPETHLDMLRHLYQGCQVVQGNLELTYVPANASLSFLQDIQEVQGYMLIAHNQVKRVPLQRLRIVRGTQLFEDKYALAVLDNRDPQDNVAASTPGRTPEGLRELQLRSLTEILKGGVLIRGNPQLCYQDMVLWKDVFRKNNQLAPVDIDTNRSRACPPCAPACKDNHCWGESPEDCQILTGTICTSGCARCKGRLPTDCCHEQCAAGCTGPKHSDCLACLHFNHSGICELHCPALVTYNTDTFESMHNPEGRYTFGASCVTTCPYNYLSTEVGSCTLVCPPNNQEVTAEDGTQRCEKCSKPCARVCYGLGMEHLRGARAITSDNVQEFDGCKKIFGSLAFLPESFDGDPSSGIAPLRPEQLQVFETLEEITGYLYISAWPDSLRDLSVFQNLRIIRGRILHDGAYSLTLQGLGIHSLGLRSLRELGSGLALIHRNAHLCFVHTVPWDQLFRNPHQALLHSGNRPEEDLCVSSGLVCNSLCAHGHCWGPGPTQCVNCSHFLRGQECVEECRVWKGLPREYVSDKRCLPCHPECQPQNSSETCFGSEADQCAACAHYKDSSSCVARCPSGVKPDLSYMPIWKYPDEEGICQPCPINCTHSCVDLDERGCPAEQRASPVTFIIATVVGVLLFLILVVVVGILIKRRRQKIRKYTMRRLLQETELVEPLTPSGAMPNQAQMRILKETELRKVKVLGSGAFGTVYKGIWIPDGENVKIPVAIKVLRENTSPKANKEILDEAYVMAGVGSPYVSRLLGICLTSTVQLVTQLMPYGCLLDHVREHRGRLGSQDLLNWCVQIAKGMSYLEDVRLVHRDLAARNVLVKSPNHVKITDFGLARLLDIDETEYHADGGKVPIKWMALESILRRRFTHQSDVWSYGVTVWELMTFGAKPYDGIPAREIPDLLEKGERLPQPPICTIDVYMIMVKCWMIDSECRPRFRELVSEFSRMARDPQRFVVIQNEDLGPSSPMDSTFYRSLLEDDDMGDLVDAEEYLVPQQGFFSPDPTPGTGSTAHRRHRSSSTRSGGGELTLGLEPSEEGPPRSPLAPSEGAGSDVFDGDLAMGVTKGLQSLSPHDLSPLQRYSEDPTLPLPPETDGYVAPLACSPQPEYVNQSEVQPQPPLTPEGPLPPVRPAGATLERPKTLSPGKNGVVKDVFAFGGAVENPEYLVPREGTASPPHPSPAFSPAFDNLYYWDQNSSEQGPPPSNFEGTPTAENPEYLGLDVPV", "test": "In vitro phosphorylation of Akt in rat Schwann cells", "assay_type": "cell-based", "settings": "Akt (Serine 473) phosphorylation, 15 minutes treatment", "how_it_was_run": "(§1)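 Akt Ser473 phosphorylation, normalised to total Akt, was measured after 15-min neuregulin variant treatment of serum-starved (16 h) cells: rat Schwann cells for ErbB3, neonatal rat cardiomyocytes for ErbB4. EC50 derived by variable-slope log(agonist) fit; CM % agonism is the curve top.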", "values": [{"molecule": "B1", "Schwann cells (SC) (ErbB3) Avg EC50 (M)": "inactive"}, {"molecule": "B2", "Schwann cells (SC) (ErbB3) Avg EC50 (M)": "inactive"}]}, {"target": "T1, ErbB3", "test": "In vitro phosphorylation of Akt in rat Schwann cells", "assay_type": "cell-based", "settings": "Akt (Serine 473) phosphorylation, 15 minutes treatment, read-out: Schwann cells (SC) (ErbB3) Avg EC50", "how_it_was_run": "as §1", "units": {"EC50": "nM"}, "values": [{"molecule": "B3", "EC50": 546}, {"molecule": "B4", "EC50": 510}, {"molecule": "B5", "EC50": 10000}, {"molecule": "B6", "EC50": 10000}, {"molecule": "B7", "EC50": 10000}, {"molecule": "B8", "EC50": 10000}, {"molecule": "B9", "EC50": 10000}, {"molecule": "B10", "EC50": 10000}, {"molecule": "B11", "EC50": 10000}, {"molecule": "B12", "EC50": 0.14}]}, {"target": "T2, ErbB4 (Rattus norvegicus, UniProt Q62956)", "T2 construct": "forming the ErbB2/ErbB4 complex in cardiomyocytes and the ErbB2/ErbB3 complex in Schwann cells; endogenous in cells; host or cells: primary neonatal rat cardiomyocytes (Sprague Dawley pups, 0 to 4 days old)", "T2 sequence (Q62956 26-1308)": "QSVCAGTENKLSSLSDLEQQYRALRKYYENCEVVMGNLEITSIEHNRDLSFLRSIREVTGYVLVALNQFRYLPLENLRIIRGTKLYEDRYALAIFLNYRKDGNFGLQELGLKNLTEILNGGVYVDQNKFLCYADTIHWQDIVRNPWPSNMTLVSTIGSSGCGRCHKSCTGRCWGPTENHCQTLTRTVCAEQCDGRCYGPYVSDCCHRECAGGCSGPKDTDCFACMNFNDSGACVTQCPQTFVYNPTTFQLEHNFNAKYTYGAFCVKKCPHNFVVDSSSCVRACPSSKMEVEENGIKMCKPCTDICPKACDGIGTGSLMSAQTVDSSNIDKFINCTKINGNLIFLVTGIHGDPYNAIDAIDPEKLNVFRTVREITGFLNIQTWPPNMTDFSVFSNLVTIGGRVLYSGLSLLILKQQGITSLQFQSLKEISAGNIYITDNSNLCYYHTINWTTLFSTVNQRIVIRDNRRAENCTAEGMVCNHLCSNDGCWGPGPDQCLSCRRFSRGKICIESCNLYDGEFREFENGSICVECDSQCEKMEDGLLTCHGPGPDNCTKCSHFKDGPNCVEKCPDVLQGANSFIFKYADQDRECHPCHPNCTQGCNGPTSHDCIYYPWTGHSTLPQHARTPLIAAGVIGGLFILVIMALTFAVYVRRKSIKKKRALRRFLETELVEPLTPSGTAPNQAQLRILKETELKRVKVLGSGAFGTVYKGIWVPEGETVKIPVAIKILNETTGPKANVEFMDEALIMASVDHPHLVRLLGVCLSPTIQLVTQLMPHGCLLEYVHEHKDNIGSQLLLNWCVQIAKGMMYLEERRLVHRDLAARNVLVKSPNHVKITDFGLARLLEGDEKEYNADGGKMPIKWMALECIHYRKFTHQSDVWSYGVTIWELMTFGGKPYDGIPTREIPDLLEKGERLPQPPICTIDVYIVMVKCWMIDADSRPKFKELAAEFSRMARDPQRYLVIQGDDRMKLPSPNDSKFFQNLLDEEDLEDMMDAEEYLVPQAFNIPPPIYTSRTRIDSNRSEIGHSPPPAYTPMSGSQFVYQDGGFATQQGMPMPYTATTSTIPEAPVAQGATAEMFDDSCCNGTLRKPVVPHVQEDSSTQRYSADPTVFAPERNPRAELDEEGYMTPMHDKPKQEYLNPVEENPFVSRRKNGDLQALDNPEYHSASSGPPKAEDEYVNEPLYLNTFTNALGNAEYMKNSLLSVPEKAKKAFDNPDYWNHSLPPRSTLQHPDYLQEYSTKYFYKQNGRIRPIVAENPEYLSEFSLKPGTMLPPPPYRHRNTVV", "T2 sequence (P06494 23-1257 partner)": "as the sequence (P06494 23-1257 partner) above", "test": "In vitro phosphorylation of Akt in neonatal rat cardiomyocytes", "assay_type": "cell-based", "settings": "Akt (Serine 473) phosphorylation, neonatal rat cardiomyocytes, 15 minutes treatment; read-out: Cardiomyocyte (CM) (ErbB4) Avg EC50", "how_it_was_run": "as §1", "units": {"EC50": "nM"}, "values": [{"molecule": "B3", "EC50": 1.04}, {"molecule": "B4", "EC50": 2.22}, {"molecule": "B5", "EC50": 0.24}, {"molecule": "B6", "EC50": 0.48}, {"molecule": "B7", "EC50": 0.3}, {"molecule": "B8", "EC50": 0.28}, {"molecule": "B9", "EC50": 0.23}, {"molecule": "B10", "EC50": 0.48}, {"molecule": "B11", "EC50": 0.25}, {"molecule": "B12", "EC50": 0.31}, {"molecule": "B1", "EC50": 0.29}, {"molecule": "B2", "EC50": 0.23}]}, {"target": "T2, ErbB4", "test": "In vitro phosphorylation of Akt in neonatal rat cardiomyocytes", "assay_type": "cell-based", "settings": "ratio of EC50s Schwann cells/cardiomyocytes", "how_it_was_run": "as §1", "values": [{"molecule": "B3", "Selectivity SC/CM": 526}, {"molecule": "B4", "Selectivity SC/CM": 229}, {"molecule": "B5", "Selectivity SC/CM": ">10000"}, {"molecule": "B6", "Selectivity SC/CM": ">10000"}, {"molecule": "B7", "Selectivity SC/CM": ">10000"}, {"molecule": "B8", "Selectivity SC/CM": ">10000"}, {"molecule": "B9", "Selectivity SC/CM": ">10000"}, {"molecule": "B10", "Selectivity SC/CM": ">10000"}, {"molecule": "B11", "Selectivity SC/CM": ">10000"}, {"molecule": "B12", "Selectivity SC/CM": 0.4516}, {"molecule": "B1", "Selectivity SC/CM": ">10000"}, {"molecule": "B2", "Selectivity SC/CM": ">10000"}]}, {"target": "T2, ErbB4", "test": "In vitro phosphorylation of Akt in neonatal rat cardiomyocytes", "assay_type": "cell-based", "settings": "top value of the Akt phosphorylation data points in cardiomyocytes; wild-type control 100", "how_it_was_run": "as §1", "units": {"CM % Agonism AVG": "%"}, "values": [{"molecule": "B3", "CM % Agonism AVG": 27}, {"molecule": "B4", "CM % Agonism AVG": 28}, {"molecule": "B5", "CM % Agonism AVG": 83.6}, {"molecule": "B6", "CM % Agonism AVG": 82.2}, {"molecule": "B7", "CM % Agonism AVG": 83.2}, {"molecule": "B8", "CM % Agonism AVG": 77.2}, {"molecule": "B9", "CM % Agonism AVG": 85.8}, {"molecule": "B10", "CM % Agonism AVG": 87.8}, {"molecule": "B11", "CM % Agonism AVG": 92.9}, {"molecule": "B12", "CM % Agonism AVG": 91.4}, {"molecule": "B1", "CM % Agonism AVG": 71.8}, {"molecule": "B2", "CM % Agonism AVG": 76.2}]}]}
